According to patent US5776901A, “Polypeptide analogues having growth hormone releasing activity” (Administrators of the Tulane Educational Fund, priority 1992, dated 1998):
Part of at least one peptide drawing is inferred or uncertain, most often the ends. Where a SMILES comes first, the peptide text is derived from it. [ ]: non-standard residue; d: D form. The star is where a group is joined. d2Nal = N[C@H](Cc1ccc2ccccc2c1)C(=O)O; Lys(iPr) = CC(C)NCCCC[C@H](N)C(=O)O; NH(CH2)5NH2 = NCCCCCN*; Aib = CC(C)(N)C(=O)O; Ava = NCCCCC(=O)O

Test system: serum growth hormone (GH)
Experiment: In vivo GH release in pentobarbital anesthetized rats, i.v. injection
Design: species or system rat
Details: sacrificed 10 min after injection, N = 6
Protocol: Immature female Sprague-Dawley rats were obtained from the Charles River Laboratories (Wilmington, Mass.). After arrival they were housed at 25° C. with a 14:10 hour light:dark cycle. Water and Purina rat chow were available ad libitum. Pups were kept with their mothers until 21 days of age.
Twenty-six day old rats, six rats per treatment group, were anesthetized interperitoneally with 50 mg/kg of pentobarbital 20 minutes prior to i.v. treatment with peptide. Normal saline with 0.1% gelatin was the vehicle for intravenous (i.v.) injections of the peptides. The anesthetized rats, weighing 55-65 grams, were injected i.v. with the quantity of growth hormone releasing compounds indicated in Table 3. Injection was made as a 0.1 mL solution into the jugular vein.
All animals were sacrificed by guillotine 10 minutes after the final test injection (see Table 3). Trunk blood for the determination of blood GH levels was collected following decapitation. After allowing the blood to clot, it was centrifuged and the serum was separated from the clot. Serum was kept frozen until the day of sampling for radioimmunoassay (RIA) determination of growth hormone levels according to the following procedure, as developed by the National Institute of Arthritis, Diabetes and Digestive and Kidney Diseases (NIADDK).
Reagents are generally added to the RIA analysis tubes at a single sitting, at refrigerator temperature (about 4° C.) in the following sequence:
(b) "cold" (i.e., non-radioactive) standard or unknown serum sample to be analyzed,
(c) radio-iodinated growth hormone antigen, and
(d) growth hormone antiserum.
Reagent addition is generally carried out so that there is achieved a final RIA tube dilution of about 1:30,000 (antiserum to total liquid volume; vol:vol).
The mixed reagents are then typically incubated at room temperature (about 25° C.) for about 24 hours prior to addition of a second antibody (e.g., goat or rabbit anti-monkey gamma globulin serum) which binds to and causes precipitation of the complexed growth hormone antiserum. Precipitated contents of the RIA tubes are then analyzed for the number of counts in a specified period of time in a gamma scintillation counter. A standard curve is prepared by plotting number of radioactive counts versus growth hormone (GH) level. GH levels of unknowns are then determined by reference to the standard curve.
Serum GH was measured by RIA with reagents provided by the National Hormone and Pituitary Program.
Serum levels in Table 3 are recorded in ng/mL in terms of the rat GH standard of 0.61 International Units/mg (IU/mg). Data is recorded as the mean +/- standard error of the mean (SEM). Statistical analysis was performed with Student's t-test. In Table 3 the results shown are the average of studies with six rats.
The procedure of Example 2 was repeated.

[1] = Table 5, total dose 0.10 μg i.v.
[2] = Table 5, total dose 0.30 μg i.v.
[3] = Table 5, total dose 1.00 μg i.v.
[4] = Table 5, total dose 3.00 μg i.v.
[5] = Table 5, total dose 10.00 μg i.v.
[6] = Table 3, total dose 0.1 μg i.v., mean
[7] = Table 3, total dose 0.3 μg i.v., mean
[8] = Table 3, total dose 1.0 μg i.v., mean
[9] = Table 3, total dose 3.0 μg i.v., mean
[10] = Table 6, total dose 0.03 μg i.v.
[11] = Table 6, total dose 0.10 μg i.v.
[12] = Table 6, total dose 0.30 μg i.v.
[13] = Table 6, total dose 1.00 μg i.v.
[14] = Table 5, total dose 0.03 μg i.v.

SMILES: NCCCCC(=O)N[C@@H](Cc1c[nH]c2ccccc12)C(=O)N[C@H](Cc1c[nH]c2ccccc12)C(=O)N[C@@H](CCCCN)C(N)=O [Ava-Trp-DTrp-Lys-NH2] (H-[Ava]W[dW]K-NH2)
- GH Released Serum GH [1]: 153 ng/mL
- GH Released Serum GH [2]: 144 ng/mL
- GH Released Serum GH [3]: 117 ng/mL
- GH Released Serum GH [4]: 205 ng/mL
- GH Released Serum GH [5]: 214 ng/mL

SMILES: C[C@H](NC(=O)[C@@H](Cc1ccc2ccccc2c1)NC(=O)[C@@H](C)N)C(=O)N[C@@H](Cc1c[nH]c2ccccc12)C(=O)N[C@H](C)C(=O)N[C@@H](CCCCN)C(N)=O [DAla-DβNal-Ala-Trp-DAla-Lys-NH2] (H-[dA][d2Nal]AW[dA]K-NH2)
- GH Released Serum GH [1]: 220 ng/mL
- GH Released Serum GH [2]: 167 ng/mL
- GH Released Serum GH [3]: 339 ng/mL
- GH Released Serum GH [4]: 778 ng/mL
- GH Released Serum GH [5]: 1676 ng/mL
- GH Released Serum GH (Table 5, total dose 30.00 μg i.v.): 1791 ng/mL

SMILES: CC(C)NCCCC[C@H](NC(=O)[C@@H](Cc1ccccc1)NC(=O)[C@H](Cc1c[nH]c2ccccc12)NC(=O)[C@H](C)NC(=O)[C@@H](Cc1ccc2ccccc2c1)NC(=O)[C@@H](C)N)C(N)=O [D-Ala-DβNal-Ala-Trp-DPhe-Lys(iPr)-NH2] (H-[dA][d2Nal]AW[dF][Lys(iPr)]-NH2)
- GH Released Serum GH [6]: 608 ng/mL
- GH Released Serum GH [7]: 1753 ng/mL
- GH Released Serum GH [8]: 1817 ng/mL
- GH Released Serum GH [9]: 2336 ng/mL
- GH Released Serum GH [10]: 412 ng/mL
- GH Released Serum GH [11]: 630 ng/mL
- GH Released Serum GH [12]: 1877 ng/mL
- GH Released Serum GH [13]: 3008 ng/mL

SMILES: C[C@H](NC(=O)[C@@H](Cc1ccc2ccccc2c1)NC(=O)[C@@H]1CCCN1)C(=O)N[C@@H](Cc1c[nH]c2ccccc12)C(=O)N[C@H](Cc1ccccc1)C(=O)N[C@@H](CCCCN)C(N)=O [Pro-DβNal-Ala-Trp-DPhe-Lys-NH2] (H-P[d2Nal]AW[dF]K-NH2)
- GH Released Serum GH [7]: 264 ng/mL
- GH Released Serum GH [8]: 513 ng/mL
- GH Released Serum GH [9]: 1690 ng/mL

SMILES: C[C@H](NC(=O)[C@@H](Cc1ccc2ccccc2c1)NC(=O)[C@@H](C)N)C(=O)N[C@@H](Cc1c[nH]c2ccccc12)C(=O)N1CCC[C@H]1C(=O)N[C@@H](CCCCN)C(N)=O [DAla-DβNal-Ala-Trp-Pro-Lys-NH2] (H-[dA][d2Nal]AWPK-NH2)
- GH Released Serum GH [14]: 113 ng/mL
- GH Released Serum GH [3]: 136 ng/mL
- GH Released Serum GH [4]: 195 ng/mL
- GH Released Serum GH [5]: 226 ng/mL
- GH Released Serum GH [12]: 113 ng/mL
- GH Released Serum GH [13]: 136 ng/mL
- GH Released Serum GH (Table 6, total dose 3.00 μg i.v.): 195 ng/mL
- GH Released Serum GH (Table 6, total dose 10.00 μg i.v.): 226 ng/mL

SMILES: C[C@H](NC(=O)[C@@H](Cc1ccc2ccccc2c1)NC(=O)[C@@H](C)N)C(=O)N[C@@H](Cc1c[nH]c2ccccc12)C(=O)N[C@H](Cc1ccccc1)C(=O)N[C@@H](CCCNC(=N)N)C(N)=O [DAla-DβNal-Ala-Trp-DPhe-ArgNH2] (H-[dA][d2Nal]AW[dF]R-NH2)
- GH Released Serum GH [10]: 252 ng/mL
- GH Released Serum GH [11]: 645 ng/mL
- GH Released Serum GH [12]: 1180 ng/mL
- GH Released Serum GH [13]: 2197 ng/mL

SMILES: C[C@H](NC(=O)[C@@H](Cc1ccc2ccccc2c1)NC(=O)[C@@H](C)N)C(=O)N[C@@H](Cc1c[nH]c2ccccc12)C(=O)N[C@H](Cc1ccccc1)C(=O)N[C@@H](Cc1c[nH]cn1)C(N)=O [DAla-DβNal-Ala-Trp-DPhe-HisNH2] (H-[dA][d2Nal]AW[dF]H-NH2)
- GH Released Serum GH [10]: 246 ng/mL
- GH Released Serum GH [11]: 199 ng/mL
- GH Released Serum GH [12]: 370 ng/mL
- GH Released Serum GH [13]: 1419 ng/mL

SMILES: C[C@@H](N)C(=O)N[C@H](Cc1ccc2ccccc2c1)C(=O)N[C@H](C)C(=O)N[C@@H](Cc1c[nH]c2ccccc12)C(=O)N[C@H](Cc1ccccc1)C(=O)N[C@@H](CCCCN)C(N)=O [DAla-DβNal-DAla-Trp-DPhe-Lys-NH2] (H-[dA][d2Nal][dA]W[dF]K-NH2)
- GH Released Serum GH [1]: 166 ng/mL
- GH Released Serum GH [2]: 197 ng/mL
- GH Released Serum GH [3]: 343 ng/mL
- GH Released Serum GH [4]: 531 ng/mL

SMILES: C[C@@H](N)C(=O)NCC(=O)NCC(=O)N[C@@H](Cc1c[nH]c2ccccc12)C(=O)N[C@H](Cc1ccccc1)C(=O)N[C@@H](CCCCN)C(N)=O [DAla-Gly-Gly-Trp-DPhe-Lys-NH2] (H-[dA]GGW[dF]K-NH2)
- GH Released Serum GH [2]: 107 ng/mL
- GH Released Serum GH [4]: 89 ng/mL

SMILES: C[C@H](NC(=O)[C@@H](Cc1ccc2ccccc2c1)NC(=O)[C@H](N)CO)C(=O)N[C@@H](Cc1c[nH]c2ccccc12)C(=O)N[C@H](Cc1ccccc1)C(=O)N[C@@H](CCCCN)C(N)=O [DSer-DβNal-Ala-Trp-DPhe-Lys-NH2] (H-[dS][d2Nal]AW[dF]K-NH2)
- GH Released Serum GH [6]: 226 ng/mL
- GH Released Serum GH [7]: 171 ng/mL
- GH Released Serum GH [8]: 212 ng/mL

SMILES: C[C@H](NC(=O)[C@@H](Cc1ccccc1)NC(=O)[C@H](Cc1c[nH]c2ccccc12)NC(=O)[C@H](C)NC(=O)[C@@H](Cc1ccc2ccccc2c1)NC(=O)[C@@H](C)N)C(N)=O [DAla-DβNal-Ala-Trp-DPhe-Ala-NH2] (H-[dA][d2Nal]AW[dF]A-NH2)
- GH Released Serum GH [2]: 611 ng/mL
- GH Released Serum GH [3]: 929 ng/mL
- GH Released Serum GH [4]: 1765 ng/mL
- GH Released Serum GH [5]: 2644 ng/mL

SMILES: C[C@H](NC(=O)[C@@H](Cc1ccc2ccccc2c1)NC(=O)[C@@H](C)NC(=O)[C@@H](N)CC(=O)O)C(=O)N[C@@H](Cc1c[nH]c2ccccc12)C(=O)N[C@H](Cc1ccccc1)C(=O)N[C@@H](CCCCN)C(N)=O [Asp-DAla-DβNal-Ala-Trp-DPhe-Lys-NH2] (H-D[dA][d2Nal]AW[dF]K-NH2)
- GH Released Serum GH [14]: 210 ng/mL
- GH Released Serum GH [1]: 322 ng/mL
- GH Released Serum GH [2]: 557 ng/mL
- GH Released Serum GH [3]: 821 ng/mL

SMILES: C[C@H](NC(=O)[C@@H](Cc1ccccc1)NC(=O)[C@H](Cc1c[nH]c2ccccc12)NC(=O)[C@H](C)NC(=O)[C@@H](Cc1ccc2ccccc2c1)NC(=O)[C@@H](C)N)C(=O)NCCCCCN [DAla-DβNal-Ala-Trp-DPhe-Ala-NH(CH2)5 NH2] (H-[dA][d2Nal]AW[dF]A-{NH(CH2)5NH2})
- GH Released Serum GH [14]: 542 ng/mL
- GH Released Serum GH [1]: 932 ng/mL
- GH Released Serum GH [2]: 1121 ng/mL
- GH Released Serum GH [3]: 2599 ng/mL
- GH Released Serum GH [10]: 517 ng/mL
- GH Released Serum GH [11]: 1164 ng/mL
- GH Released Serum GH [12]: 2023 ng/mL
- GH Released Serum GH [13]: 3441 ng/mL

SMILES: C[C@H](NC(=O)[C@@H](Cc1ccc2ccccc2c1)NC(=O)C(C)(C)N)C(=O)N[C@@H](Cc1c[nH]c2ccccc12)C(=O)N[C@H](Cc1ccccc1)C(=O)N[C@@H](CCCCN)C(N)=O [Aib-DβNal-Ala-Trp-DPhe-Lys-NH2] (H-[Aib][d2Nal]AW[dF]K-NH2)
- GH Released Serum GH [6]: 269 ng/mL
- GH Released Serum GH [7]: 331 ng/mL
- GH Released Serum GH [8]: 368 ng/mL
- GH Released Serum GH [9]: 1090 ng/mL

SMILES: C[C@H](NC(=O)[C@H](C)NC(=O)[C@@H](Cc1ccc2ccccc2c1)NC(=O)[C@@H](C)N)C(=O)N[C@@H](Cc1c[nH]c2ccccc12)C(=O)N[C@H](Cc1ccccc1)C(=O)N[C@@H](CCCCN)C(N)=O [DAla-DβNal-Ala-Ala-Trp-DPhe-Lys-NH2] (H-[dA][d2Nal]AAW[dF]K-NH2)
- GH Released Serum GH [1]: 147 ng/mL
- GH Released Serum GH [2]: 184 ng/mL
- GH Released Serum GH [3]: 206 ng/mL
- GH Released Serum GH [4]: 143 ng/mL

SMILES: C[C@H](NC(=O)[C@H](N)Cc1ccc2ccccc2c1)C(=O)N[C@@H](Cc1c[nH]c2ccccc12)C(=O)N[C@H](Cc1ccccc1)C(=O)N[C@@H](CCCCN)C(N)=O [DβNal-Ala-Trp-DPhe-Lys-NH2] (H-[d2Nal]AW[dF]K-NH2)
- GH Released Serum GH [7]: 436 ng/mL
- GH Released Serum GH [8]: 660 ng/mL
- GH Released Serum GH [9]: 776 ng/mL
